Source: the supplement of paper PMC8728848
This is one part of the list.

Columns and labels:
Experiment in all cases: glycan array binding signal (z-score within array); higher = stronger binding
Settings in all cases: glycan notation: IUPAC condensed, linker removed
[1] = target: Man(a1-2)Man(a1-3)[Man(a1-2)Man(a1-6)]Man
Outline: (§1)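 Columns mapping to the same glycan were averaged after glycan names were converted to IUPAC-condensed notation. The data come from 3228 arrays in the Consortium for Functional Glycomics database, limited to those with an available protein sequence. Binding is reported as a within-array Z-score averaged across arrays of one protein sequence and across linkers.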

[2] = target: Man(a1-2)Man(a1-3)[Man(a1-2)Man(a1-6)]Man(a1-6)[Man(a1-2)Man(a1-2)Man(a1-3)]Man
Outline: as §1

[3] = target: Man(a1-2)Man(a1-3)[Man(a1-2)Man(a1-6)]Man(a1-6)[Man(a1-2)Man(a1-2)Man(a1-3)]Man(b1-4)GlcNAc(b1-4)GlcNAc
Outline: as §1

[4] = target: Man(a1-2)Man(a1-3)[Man(a1-6)]Man(a1-6)[Man(a1-2)Man(a1-3)]Man(b1-4)GlcNAc(b1-4)GlcNAc
Outline: as §1

[5] = target: Man(a1-2)Man(a1-6)[Man(a1-3)]Man(a1-6)[Man(a1-2)Man(a1-2)Man(a1-3)]Man
Outline: as §1

[6] = target: Man(a1-2)Man(a1-6)[Man(a1-3)]Man(a1-6)[Man(a1-2)Man(a1-2)Man(a1-3)]Man(b1-4)GlcNAc(b1-4)GlcNAc
Outline: as §1

Man(a1-3)[Man(a1-6)]Man = target: Man(a1-3)[Man(a1-6)]Man
Outline: as §1

[7] = target: Man(a1-3)[Man(a1-6)]Man(a1-6)[Man(a1-2)Man(a1-3)]Man(b1-4)GlcNAc(b1-4)GlcNAc
Outline: as §1

[8] = target: Man(a1-3)[Man(a1-6)]Man(a1-6)[Man(a1-3)]Man
Outline: as §1

[9] = target: Man(a1-3)[Man(a1-6)]Man(a1-6)[Man(a1-3)]Man(b1-4)GlcNAc(b1-4)GlcNAc
Outline: as §1

[10] = target: Man(a1-3)[Man(a1-6)]Man(b1-4)GlcNAc(b1-4)GlcNAc
Outline: as §1

[11] = target: Man(a1-3)[Man(a1-6)]Man(b1-4)GlcNAc(b1-4)[Fuc(a1-6)]GlcNAc
Outline: as §1

Man(a1-6)Man = target: Man(a1-6)Man
Outline: as §1

Man(b1-4)GlcNAc = target: Man(b1-4)GlcNAc
Outline: as §1

MurNAc(b1-4)GlcNAc = target: MurNAc(b1-4)GlcNAc
Outline: as §1

Neu5Ac(a2-3)Gal = target: Neu5Ac(a2-3)Gal
Outline: as §1

[12] = target: Neu5Ac(a2-3)Gal(b1-3)GalNAc
Outline: as §1

[13] = target: Neu5Ac(a2-3)Gal(b1-3)GalNAc(b1-3)Gal(a1-4)Gal(b1-4)Glc
Outline: as §1

[14] = target: Neu5Ac(a2-3)Gal(b1-3)GalNAc(b1-4)Gal(b1-4)Glc
Outline: as §1

[15] = target: Neu5Ac(a2-3)Gal(b1-3)GalNAc(b1-4)[Neu5Ac(a2-3)]Gal(b1-4)Glc
Outline: as §1

[16] = target: Neu5Ac(a2-3)Gal(b1-3)GalNAc(b1-4)[Neu5Ac(a2-8)Neu5Ac(a2-3)]Gal(b1-4)Glc
Outline: as §1

[17] = target: Neu5Ac(a2-3)Gal(b1-3)GalNAc6S
Outline: as §1

[18] = target: Neu5Ac(a2-3)Gal(b1-3)GlcNAc
Outline: as §1

[19] = target: Neu5Ac(a2-3)Gal(b1-3)GlcNAc(b1-2)Man
Outline: as §1

[20] = target: Neu5Ac(a2-3)Gal(b1-3)GlcNAc(b1-2)Man(a1-3)[GlcNAc(b1-4)][Neu5Ac(a2-3)Gal(b1-3)GlcNAc(b1-2)Man(a1-6)]Man(b1-4)GlcNAc(b1-4)GlcNAc
Outline: as §1

[21] = target: Neu5Ac(a2-3)Gal(b1-3)GlcNAc(b1-2)Man(a1-3)[Neu5Ac(a2-3)Gal(b1-3)GlcNAc(b1-2)Man(a1-6)]Man(b1-4)GlcNAc(b1-4)GlcNAc
Outline: as §1

[22] = target: Neu5Ac(a2-3)Gal(b1-3)GlcNAc(b1-2)[Neu5Ac(a2-3)Gal(b1-3)GlcNAc(b1-4)]Man(a1-6)[Neu5Ac(a2-3)Gal(b1-3)GlcNAc(b1-2)Man(a1-3)]Man(b1-4)GlcNAc(b1-4)GlcNAc
Outline: as §1

[23] = target: Neu5Ac(a2-3)Gal(b1-3)GlcNAc(b1-3)Gal(b1-3)GlcNAc
Outline: as §1

[24] = target: Neu5Ac(a2-3)Gal(b1-3)GlcNAc(b1-3)Gal(b1-4)GlcNAc
Outline: as §1

[25] = target: Neu5Ac(a2-3)Gal(b1-3)GlcNAc(b1-3)GalNAc
Outline: as §1

[26] = target: Neu5Ac(a2-3)Gal(b1-3)GlcNAc(b1-6)GalNAc
Outline: as §1

[27] = target: Neu5Ac(a2-3)Gal(b1-3)GlcNAc6S
Outline: as §1

[28] = target: Neu5Ac(a2-3)Gal(b1-3)[Fuc(a1-4)]GlcNAc
Outline: as §1

[29] = target: Neu5Ac(a2-3)Gal(b1-3)[Fuc(a1-4)]GlcNAc(b1-3)Gal(b1-3)[Fuc(a1-4)]GlcNAc
Outline: as §1

[30] = target: Neu5Ac(a2-3)Gal(b1-3)[Fuc(a1-4)]GlcNAc(b1-3)Gal(b1-4)[Fuc(a1-3)]GlcNAc
Outline: as §1

[31] = target: Neu5Ac(a2-3)Gal(b1-3)[GlcNAc(b1-6)]GalNAc
Outline: as §1

[32] = target: Neu5Ac(a2-3)Gal(b1-3)[Neu5Ac(a2-6)]GalNAc
Outline: as §1

[33] = target: Neu5Ac(a2-3)Gal(b1-3)[Neu5Ac(a2-6)]GlcNAc(b1-3)[Fuc(a1-3)[Gal(b1-4)]GlcNAc(b1-6)]Gal(b1-4)Glc
Outline: as §1

B1: CGL (Crenomytilus grayanus), H2FH31 (protein)
chain: MTTFLIKHKASGKFLHPYGGSSNPANNTKLVLHSDIHERMYFQFDVVDERWGYIKHVASGKIVHPYGGQANPPNETNMVLHQDRHDRALFAMDFFNDNIMHKGGKYIHPKGGSPNPPNNTETVIHGDKHAAMEFIFVSPKNKDKRVLVYA
glycan array binding signal (z-score) [1]: -0.443 | glycan array binding signal (z-score) [2]: -0.438 | glycan array binding signal (z-score) [3]: -0.372 | glycan array binding signal (z-score) [4]: -0.384 | glycan array binding signal (z-score) [5]: -0.435 | glycan array binding signal (z-score) [6]: -0.357 | glycan array binding signal (z-score) (Man(a1-3)[Man(a1-6)]Man): -0.291 | glycan array binding signal (z-score) [7]: -0.278 | glycan array binding signal (z-score) [8]: -0.36 | glycan array binding signal (z-score) [9]: -0.328 | glycan array binding signal (z-score) [10]: -0.395 | glycan array binding signal (z-score) [11]: -0.379 | glycan array binding signal (z-score) (Man(a1-6)Man): -0.367 | glycan array binding signal (z-score) (Man(b1-4)GlcNAc): -0.269 | glycan array binding signal (z-score) (MurNAc(b1-4)GlcNAc): -0.335 | glycan array binding signal (z-score) (Neu5Ac(a2-3)Gal): -0.357 | glycan array binding signal (z-score) [12]: -0.327 | glycan array binding signal (z-score) [13]: -0.288 | glycan array binding signal (z-score) [14]: -0.332 | glycan array binding signal (z-score) [15]: -0.236 | glycan array binding signal (z-score) [16]: -0.346 | glycan array binding signal (z-score) [17]: -0.332 | glycan array binding signal (z-score) [18]: -0.281 | glycan array binding signal (z-score) [19]: -0.314 | glycan array binding signal (z-score) [20]: -0.406 | glycan array binding signal (z-score) [21]: -0.382 | glycan array binding signal (z-score) [22]: -0.329 | glycan array binding signal (z-score) [23]: -0.388 | glycan array binding signal (z-score) [24]: -0.356 | glycan array binding signal (z-score) [25]: -0.337 | glycan array binding signal (z-score) [26]: -0.234 | glycan array binding signal (z-score) [27]: -0.349 | glycan array binding signal (z-score) [28]: -0.362 | glycan array binding signal (z-score) [29]: -0.359 | glycan array binding signal (z-score) [30]: -0.273 | glycan array binding signal (z-score) [31]: -0.485 | glycan array binding signal (z-score) [32]: -0.331 | glycan array binding signal (z-score) [33]: -0.271
